Measured values taken from the supplement of paper PMC11741623.
The other results are listed elsewhere or left out. Interaction screen of human proteins with wild-type SARS-CoV-2 proteins by split-DHFR complementation in yeast, 1 µg/mL methotrexate. Value = fitness of the pair (three or more lineages) minus that of the viral protein without a human partner, on a scale set by negative (0) and fused positive (1) controls, mean of up to three cultures; higher = more likely to interact. Active = false discovery rate below 0.05 (one-sided t-test) in at least one culture. Nearly all pairs are not hits, and differences among them are mostly noise (correlation between cultures about 0.3); most hits were seen in one culture only. Human sequences are the Swiss-Prot entries looked up by gene name; the clone may be another isoform. NSP2 values were corrected by the authors for a growth advantage. Listed are human proteins with a hit and a random twelfth of the others.

How the values were obtained:
Test in all cases: yeast fitness gain over the viral ORF with no human partner (scaled fitness); higher = more likely to interact
SARS-CoV-2 NSP1 = target: SARS-CoV-2 NSP1
Method: (§1)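 Split mouse DHFR complementation in pooled diploid yeast: human ORFeome clones carry one fragment and viral ORFs the other; barcoded lineages compete in 1 µg/mL methotrexate and fitness is read by barcode sequencing in up to three cultures.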

SARS-CoV-2 NSP10 = target: SARS-CoV-2 NSP10
Method: as §1

SARS-CoV-2 NSP12 = target: SARS-CoV-2 NSP12
Method: as §1

SARS-CoV-2 NSP13 = target: SARS-CoV-2 NSP13
Method: as §1

SARS-CoV-2 NSP14 = target: SARS-CoV-2 NSP14
Method: as §1

SARS-CoV-2 NSP15 = target: SARS-CoV-2 NSP15
Method: as §1

SARS-CoV-2 NSP16 = target: SARS-CoV-2 NSP16
Method: as §1

SARS-CoV-2 NSP2 = target: SARS-CoV-2 NSP2
Method: as §1

SARS-CoV-2 NSP4 = target: SARS-CoV-2 NSP4
Method: as §1

SARS-CoV-2 NSP5 = target: SARS-CoV-2 NSP5
Method: as §1

SARS-CoV-2 NSP6 = target: SARS-CoV-2 NSP6
Method: as §1

SARS-CoV-2 NSP7 = target: SARS-CoV-2 NSP7
Method: as §1

SARS-CoV-2 NSP8 = target: SARS-CoV-2 NSP8
Method: as §1

SARS-CoV-2 NSP9 = target: SARS-CoV-2 NSP9
Method: as §1

SARS-CoV-2 ORF10 = target: SARS-CoV-2 ORF10
Method: as §1

SARS-CoV-2 ORF3A = target: SARS-CoV-2 ORF3A
Method: as §1

SARS-CoV-2 ORF3B = target: SARS-CoV-2 ORF3B
Method: as §1

SARS-CoV-2 ORF6 = target: SARS-CoV-2 ORF6
Method: as §1

SARS-CoV-2 ORF7A = target: SARS-CoV-2 ORF7A
Method: as §1

SARS-CoV-2 ORF7B = target: SARS-CoV-2 ORF7B
Method: as §1

SARS-CoV-2 ORF8 = target: SARS-CoV-2 ORF8
Method: as §1

SARS-CoV-2 ORF9B = target: SARS-CoV-2 ORF9B
Method: as §1

SARS-CoV-2 S = target: SARS-CoV-2 S
Method: as §1

Measured: yeast fitness gain

B1: HFE2, Q6ZVN8 (protein)
chain: MGEPGQSPSPRSSHGSPPTLSTLTLLLLLCGHAHSQCKILRCNAEYVSSTLSLRGGGSSGALRGGGGGGRGGGVGSGGLCRALRSYALCTRRTARTCRGDLAFHSAVHGIEDLMIQHNCSRQGPTAPPPPRGPALPGAGSGLPAPDPCDYEGRFSRLHGRPPGFLHCASFGDPHVRSFHHHFHTCRVQGAWPLLDNDFLFVQATSSPMALGANATATRKLTIIFKNMQECIDQKVYQAEVDNLPVAFEDGSINGGDRPGGSSLSIQTANPGNHVEIQAAYIGTTIIIRQTAGQLSFSIKVAEDVAMAFSAEQDLQLCVGGCPPSQRLSRSERNRRGAITIDTARRLCKEGLPVEDAYFHSCVFDVLISGDPNFTVAAQAALEDARAFLPDLEKLHLFPSDAGVPLSSATLLAPLLSGLFVLWLCIQ
inactive: SARS-CoV-2 NSP1 = 0.0291 | SARS-CoV-2 NSP10 = -0.00355 | SARS-CoV-2 NSP12 = 0.0467 | SARS-CoV-2 NSP13 = -0.00299 | SARS-CoV-2 NSP14 = -0.15 | SARS-CoV-2 NSP15 = -0.0371 | SARS-CoV-2 NSP16 = -0.0118 | SARS-CoV-2 NSP2 = -0.122 | SARS-CoV-2 NSP4 = 0.143 | SARS-CoV-2 NSP5 = 0.00641 | SARS-CoV-2 NSP6 = 0.0761 | SARS-CoV-2 NSP7 = 0.083 | SARS-CoV-2 NSP8 = 0.0219 | SARS-CoV-2 NSP9 = 0.0465 | SARS-CoV-2 ORF10 = 0.0434 | SARS-CoV-2 ORF3A 0.0189 | SARS-CoV-2 ORF3B 0.0116 | SARS-CoV-2 ORF6 = 0.062 | SARS-CoV-2 ORF7A -0.0403 | SARS-CoV-2 ORF7B -0.0023 | SARS-CoV-2 ORF8 = -0.0126 | SARS-CoV-2 ORF9B 0.0279 | SARS-CoV-2 S -0.145

B2: OAS2, P29728 (protein)
chain: MGNGESQLSSVPAQKLGWFIQEYLKPYEECQTLIDEMVNTICDVLQEPEQFPLVQGVAIGGSYGRKTVLRGNSDGTLVLFFSDLKQFQDQKRSQRDILDKTGDKLKFCLFTKWLKNNFEIQKSLDGFTIQVFTKNQRISFEVLAAFNALSLNDNPSPWIYRELKRSLDKTNASPGEFAVCFTELQQKFFDNRPGKLKDLILLIKHWHQQCQKKIKDLPSLSPYALELLTVYAWEQGCRKDNFDIAEGVRTVLELIKCQEKLCIYWMVNYNFEDETIRNILLHQLQSARPVILDPVDPTNNVSGDKICWQWLKKEAQTWLTSPNLDNELPAPSWNVLPAPLFTTPGHLLDKFIKEFLQPNKCFLEQIDSAVNIIRTFLKENCFRQSTAKIQIVRGGSTAKGTALKTGSDADLVVFHNSLKSYTSQKNERHKIVKEIHEQLKAFWREKEEELEVSFEPPKWKAPRVLSFSLKSKVLNESVSFDVLPAFNALGQLSSGSTPSPEVYAGLIDLYKSSDLPGGEFSTCFTVLQRNFIRSRPTKLKDLIRLVKHWYKECERKLKPKGSLPPKYALELLTIYAWEQGSGVPDFDTAEGFRTVLELVTQYQQLCIFWKVNYNFEDETVRKFLLSQLQKTRPVILDPAEPTGDVGGGDRWCWHLLAKEAKEWLSSPCFKDGTGNPIPPWKVPTMQTPGSCGARIHPIVNEMFSSRSHRILNNNSKRNF
inactive: SARS-CoV-2 NSP1 = 0.00659 | SARS-CoV-2 NSP12 = 0.0432 | SARS-CoV-2 NSP13 = 0.00913 | SARS-CoV-2 NSP2 = 0.0469 | SARS-CoV-2 NSP7 = 0.0226 | SARS-CoV-2 NSP8 = 0.127 | SARS-CoV-2 ORF10 = -0.115 | SARS-CoV-2 ORF3B -0.0647 | SARS-CoV-2 ORF6 = 0.0315 | SARS-CoV-2 ORF7A 0.0147 | SARS-CoV-2 ORF7B 0.197 | SARS-CoV-2 ORF8 = -0.00672 | SARS-CoV-2 ORF9B -0.0348 | SARS-CoV-2 S -0.0447

B3: FAM24B, Q8N5W8 (protein)
chain: MPVIAGGILAALLLLIVVVLCLYFKIHNALKAAKEPEAVAVKNHNPDKVWWAKNSQAKTIATESCPALQCCEGYRMCASFDSLPPCCCDINEGL
inactive: SARS-CoV-2 NSP1 = -0.00445 | SARS-CoV-2 NSP13 = 0.0262 | SARS-CoV-2 NSP2 = -0.127 | SARS-CoV-2 NSP7 = 0.11 | SARS-CoV-2 ORF3A 0.0373 | SARS-CoV-2 ORF3B -0.0626 | SARS-CoV-2 ORF7B -0.0716 | SARS-CoV-2 ORF8 = -0.113

B4: CCDC172, P0C7W6 (protein)
chain: MSLESLFQHIIFTEHQAEESRRLMREVRSEITRCREKIKKATEELNEEKIKLESKVQQFFEKSFFLQLLKAHENALEKQYSEITNHRNMLLQTFEAIKKQMIEEEDKFIKEITDFNNDYEITKKRELLMKENVKIEISDLENQANMLKSEMKSMEHDSSQLNELQKQKSELIQELFTLQRKLKVFEDEENESICTTKYLEAEKIKISEKPQNDTECLRLKKELELYKEDDMESVYEALQTEIEFLELTLAQKDLQESK
inactive: SARS-CoV-2 NSP1 = 0.00989 | SARS-CoV-2 NSP10 = -0.13 | SARS-CoV-2 NSP12 = -0.136 | SARS-CoV-2 NSP13 = -0.766 | SARS-CoV-2 NSP2 = 0.0646 | SARS-CoV-2 NSP6 = -0.0877 | SARS-CoV-2 NSP7 = 0.036 | SARS-CoV-2 ORF9B -0.488

B5: HIF1AN, Q9NWT6 (protein)
chain: MAATAAEAVASGSGEPREEAGALGPAWDESQLRSYSFPTRPIPRLSQSDPRAEELIENEEPVVLTDTNLVYPALKWDLEYLQENIGNGDFSVYSASTHKFLYYDEKKMANFQNFKPRSNREEMKFHEFVEKLQDIQQRGGEERLYLQQTLNDTVGRKIVMDFLGFNWNWINKQQGKRGWGQLTSNLLLIGMEGNVTPAHYDEQQNFFAQIKGYKRCILFPPDQFECLYPYPVHHPCDRQSQVDFDNPDYERFPNFQNVVGYETVVGPGDVLYIPMYWWHHIESLLNGGITITVNFWYKGAPTPKRIEYPLKAHQKVAIMRNIEKMLGEALGNPQEVGPLLNTMIKGRYN
inactive: SARS-CoV-2 NSP1 = -0.112 | SARS-CoV-2 NSP13 = -0.0241 | SARS-CoV-2 ORF7B -0.158
